# Data taken from the BET-seq Pho4 binding data (Le et al. 2018).
# This is one part of the list. Values were computed here from the reads of four pooled replicates and scatter widely.
# Target: T1, Pho4 (S. cerevisiae) (UniProt P07270)
# T1 sequence: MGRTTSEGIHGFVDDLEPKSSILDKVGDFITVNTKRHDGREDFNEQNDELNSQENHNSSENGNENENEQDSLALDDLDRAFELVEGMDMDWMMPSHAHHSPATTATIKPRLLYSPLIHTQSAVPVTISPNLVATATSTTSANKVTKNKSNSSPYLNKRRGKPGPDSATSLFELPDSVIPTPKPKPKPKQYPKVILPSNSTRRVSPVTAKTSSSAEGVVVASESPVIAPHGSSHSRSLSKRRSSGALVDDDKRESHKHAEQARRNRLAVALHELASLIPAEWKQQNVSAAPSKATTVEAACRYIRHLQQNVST
# Assay: relative binding free energy (BET-seq); higher = weaker binding
# Conditions: reference: library average
row,Sequence,relative binding free energy
1,GTGTGCACGTGGGGGT,-0.1 kcal/mol
2,GGTTGCACGTGACGTA,0.04 kcal/mol
3,CCATTCACGTGGTGTG,0.33 kcal/mol
4,TGAGGCACGTGACGCG,0.12 kcal/mol
5,GTAACCACGTGTGTTT,-0.03 kcal/mol
6,TGGAACACGTGGGAAA,0.25 kcal/mol
7,GGCTCCACGTGGTGAG,0.08 kcal/mol
8,TACGGCACGTGGAGGT,-0.14 kcal/mol
9,ATTATCACGTGTCGGG,0.2 kcal/mol
10,ATGTGCACGTGTATGC,-0.11 kcal/mol
11,TGCGGCACGTGCAGGG,-0.06 kcal/mol
12,TTATACACGTGAATTT,0.25 kcal/mol
13,TTTGTCACGTGGATAA,0.1 kcal/mol
14,AGACGCACGTGTATGG,0 kcal/mol
15,TGGAGCACGTGTATGA,-0.13 kcal/mol
16,AGCTGCACGTGGTTGT,-0.11 kcal/mol
17,TAATTCACGTGTGTGA,0.35 kcal/mol
18,GTTGGCACGTGAGAGC,0.19 kcal/mol
19,GTTTTCACGTGCCGAG,0.38 kcal/mol
20,TAGTGCACGTGTTTTC,0.1 kcal/mol
21,GAGCGCACGTGAGGTA,0.22 kcal/mol
22,TGTATCACGTGTACTT,0.01 kcal/mol
23,CGTTACACGTGTATGG,0 kcal/mol
24,TTATTCACGTGGAGCG,0.24 kcal/mol
25,AAGGTCACGTGAGTAA,0.33 kcal/mol
26,GAAGACACGTGGTGTC,0.1 kcal/mol

row,Sequence,relative binding free energy
1,CGTTGCACGTGATTAT,0.06 kcal/mol
2,CGAAGCACGTGGGAGG,-0.21 kcal/mol
3,AGGGTCACGTGGGTGG,0.06 kcal/mol
4,GGCGTCACGTGGGGTC,0.01 kcal/mol
5,ATGGTCACGTGGTCTA,0.01 kcal/mol
6,GTTTTCACGTGAGCCT,0.37 kcal/mol
7,GTTGCCACGTGGGGAG,-0.17 kcal/mol
8,TGTGTCACGTGTGGCA,0.1 kcal/mol
9,TCAATCACGTGGAGGG,0.12 kcal/mol
10,TAAAACACGTGAGGAG,0.47 kcal/mol
11,TGTGGCACGTGGAAAG,-0.11 kcal/mol
12,GAGTTCACGTGGTTGA,0.23 kcal/mol
13,AGATGCACGTGGTACT,-0.05 kcal/mol
14,AAGTACACGTGAGAGG,0.38 kcal/mol
15,AGCGGCACGTGCGGGC,-0.28 kcal/mol
16,CGAGTCACGTGGGGCA,-0.04 kcal/mol
17,TGGAACACGTGGTGAG,-0.07 kcal/mol
18,GTTAGCACGTGCCGGG,0.01 kcal/mol
19,TATAGCACGTGTTGCT,-0.18 kcal/mol
20,ATATGCACGTGGCGTT,-0.15 kcal/mol
21,TGTTACACGTGAAGGG,0.36 kcal/mol
22,CGTTTCACGTGCTTAG,0.22 kcal/mol
23,TAGAGCACGTGATGTA,0.06 kcal/mol
24,AGCGTCACGTGGTGCA,-0.03 kcal/mol
25,AACGACACGTGGGGTT,-0.07 kcal/mol
26,GTAGCCACGTGGGCGT,-0.04 kcal/mol

row,Sequence,relative binding free energy
1,TGTATCACGTGGGTGG,0.05 kcal/mol
2,GTGTTCACGTGCAAGT,0.3 kcal/mol
3,GCAGTCACGTGAAGGG,0.21 kcal/mol
4,GTCTTCACGTGTGATT,0.36 kcal/mol
5,GGGCACACGTGATAGT,0.24 kcal/mol
6,AGGTGCACGTGCAGTT,0.03 kcal/mol
7,TTTGTCACGTGTCATG,0.07 kcal/mol
8,TGTCACACGTGATGTA,0.19 kcal/mol
9,GGGGTCACGTGTAGGC,0.24 kcal/mol
10,GGGTGCACGTGTATAG,0.02 kcal/mol
11,TTGTGCACGTGTACTA,-0.08 kcal/mol
12,CATGGCACGTGGGACG,-0.18 kcal/mol
13,TTTAACACGTGATTGT,0.17 kcal/mol
14,ATTGCCACGTGGTATG,-0.17 kcal/mol
15,GAATGCACGTGGGTGC,-0.18 kcal/mol
16,GGGTTCACGTGTGAAG,0.31 kcal/mol
17,AGGCGCACGTGGGTAT,-0.12 kcal/mol
18,GTTGCCACGTGGGGCA,-0.31 kcal/mol
19,TTTGTCACGTGAGGTC,0.15 kcal/mol
20,TGGGACACGTGATGTC,0.07 kcal/mol
21,TGCAGCACGTGAGTTT,0.3 kcal/mol
22,GAGTTCACGTGTGCGA,0.37 kcal/mol
23,CGCTGCACGTGGAGGT,-0.13 kcal/mol
24,TTTGCCACGTGTATGG,-0.03 kcal/mol
25,GTACACACGTGGGGAG,-0.1 kcal/mol
26,TCTGGCACGTGGGTTC,-0.12 kcal/mol

row,Sequence,relative binding free energy
1,TGCGGCACGTGTTGGA,-0.23 kcal/mol
2,GTAGACACGTGGAAGT,-0.04 kcal/mol
3,GTTTACACGTGGCGGG,0.24 kcal/mol
4,CATCTCACGTGTGGGT,0.21 kcal/mol
5,ATTGGCACGTGTGCGT,-0.04 kcal/mol
6,GTTGCCACGTGTGGTA,0 kcal/mol
7,TGGGCCACGTGGAAGA,0.07 kcal/mol
8,GTAATCACGTGTTAGA,0.07 kcal/mol
9,TAGGCCACGTGTGTTT,-0.01 kcal/mol
10,TTTATCACGTGGCTTC,0.26 kcal/mol
11,CGGTGCACGTGGGCAT,-0.17 kcal/mol
12,TTAAACACGTGATTTG,0.09 kcal/mol
13,GTAGCCACGTGTGGGC,-0.03 kcal/mol
14,CTAGTCACGTGTAAGG,0.13 kcal/mol
15,GTTTTCACGTGCTTGA,0.36 kcal/mol
16,ATTTTCACGTGCCGTT,0.21 kcal/mol
17,GGGGGCACGTGACGAT,0.06 kcal/mol
18,AGGAGCACGTGAAGGG,0.31 kcal/mol
19,ATTTGCACGTGGGAGC,-0.03 kcal/mol
20,TGTGTCACGTGCGCAG,-0.16 kcal/mol
21,CTTCGCACGTGGCGGG,-0.14 kcal/mol
22,AGTTGCACGTGGGACC,-0.02 kcal/mol
23,TTGTGCACGTGGCATT,-0.28 kcal/mol
24,ATCTTCACGTGCGGTG,0.18 kcal/mol
25,CGTTTCACGTGTTGAG,0.24 kcal/mol
26,TTTTACACGTGTGGCT,0.17 kcal/mol

row,Sequence,relative binding free energy
1,TTGGGCACGTGATAAA,-0.09 kcal/mol
2,GGGACCACGTGTATGT,0 kcal/mol
3,GGTTTCACGTGTTACT,0.33 kcal/mol
4,TAGGACACGTGTTATA,-0.05 kcal/mol
5,GGAATCACGTGAGTAT,0.51 kcal/mol
6,CTGTTCACGTGTGGCA,0.2 kcal/mol
7,AGGGGCACGTGATTGG,-0.05 kcal/mol
8,GTGACCACGTGATTGT,0.29 kcal/mol
9,CGGGCCACGTGGTGCG,-0.16 kcal/mol
10,AGTGCCACGTGAGGTA,0.17 kcal/mol
11,TTCGTCACGTGTCAGG,0.07 kcal/mol
12,ATTATCACGTGAGGGT,0.32 kcal/mol
13,GGCGCCACGTGGGTGT,-0.13 kcal/mol
14,GATGGCACGTGAGGCT,0.09 kcal/mol
15,GATATCACGTGGGCTT,0.06 kcal/mol
16,GGAGGCACGTGAGACT,0.28 kcal/mol
17,TCTTACACGTGCGTGG,0.23 kcal/mol
18,TCGGGCACGTGTGAAG,0.04 kcal/mol
19,TCTAGCACGTGTGGAG,0.14 kcal/mol
20,CGTTTCACGTGGTAGT,0.23 kcal/mol
21,GAAAGCACGTGTATGG,0.16 kcal/mol
22,CGTGACACGTGAGGTG,0.08 kcal/mol
23,AGTTTCACGTGGTAAA,0.38 kcal/mol
24,AGAAGCACGTGGGTGC,-0.25 kcal/mol
25,GTGCACACGTGTTCGG,0.19 kcal/mol
26,ATTGACACGTGATTTG,0.01 kcal/mol

row,Sequence,relative binding free energy
1,GGAGTCACGTGATTAG,0.19 kcal/mol
2,ATCGGCACGTGGGAAG,-0.24 kcal/mol
3,GTTTACACGTGAAATG,0.31 kcal/mol
4,TAGGTCACGTGGGCTG,-0.01 kcal/mol
5,CGTAACACGTGGGAAG,0.06 kcal/mol
6,GTGTACACGTGGAGGC,-0.1 kcal/mol
7,AAAATCACGTGAAGTT,0.49 kcal/mol
8,GTTTGCACGTGGATTA,0.13 kcal/mol
9,TGTCGCACGTGATTGA,0 kcal/mol
10,TACGACACGTGATGGG,0.22 kcal/mol
11,TGTCGCACGTGGTGCT,-0.19 kcal/mol
12,GGAGTCACGTGGTTGT,0.11 kcal/mol
13,TAGCGCACGTGAGAGT,0.11 kcal/mol
14,TTTATCACGTGAATTC,0.38 kcal/mol
15,TCGTACACGTGAGGTG,0.23 kcal/mol
16,AATTTCACGTGATGTT,0.34 kcal/mol
17,GGTATCACGTGCGGCT,0.18 kcal/mol
18,TTGCGCACGTGTTGCT,-0.11 kcal/mol
19,AATGACACGTGGATGT,-0.07 kcal/mol
20,TTCCGCACGTGAGAGT,0.32 kcal/mol
21,ATAAGCACGTGGAATG,-0.05 kcal/mol
22,TAGGTCACGTGGTGCC,0.07 kcal/mol
23,TAAGACACGTGTATGG,-0.03 kcal/mol
24,AAAATCACGTGGTTGT,-0.1 kcal/mol
25,TGTTTCACGTGAAATG,0.54 kcal/mol
26,GTTGTCACGTGATTGC,0.32 kcal/mol

row,Sequence,relative binding free energy
1,CTATTCACGTGGAGGG,0.13 kcal/mol
2,GTATGCACGTGTACTT,0.08 kcal/mol
3,GTGTCCACGTGAGGTC,0.32 kcal/mol
4,CTATGCACGTGAGTTG,0.21 kcal/mol
5,ATATACACGTGGTGGG,-0.09 kcal/mol
6,ATTTGCACGTGGTTCG,0.04 kcal/mol
7,TGAGCCACGTGGTAAG,-0.05 kcal/mol
8,TGCGTCACGTGGAAGT,0.12 kcal/mol
9,AATTGCACGTGGCGGT,-0.12 kcal/mol
10,TATTTCACGTGTATCG,0.15 kcal/mol
11,ACAAGCACGTGGGGGG,-0.27 kcal/mol
12,TGGGGCACGTGGTCTG,-0.11 kcal/mol
13,AAATACACGTGATTTT,0.23 kcal/mol
14,TAAGTCACGTGTGCGG,0.09 kcal/mol
15,GTTAGCACGTGTGGCG,0.15 kcal/mol
16,AGGGGCACGTGAGCGC,-0.01 kcal/mol
17,TGAGGCACGTGCTGGA,-0.17 kcal/mol
18,GTAAGCACGTGGTATG,-0.15 kcal/mol
19,CGAGACACGTGTGGGC,0.05 kcal/mol
20,TTGGTCACGTGTGCCG,-0.01 kcal/mol
21,CTAGGCACGTGTGCGT,-0.24 kcal/mol
22,TGTGGCACGTGAGGAT,0.13 kcal/mol
23,TAGGTCACGTGTCAGA,0.28 kcal/mol
24,TAATTCACGTGCATGT,0.17 kcal/mol
25,AGTTTCACGTGAACGT,0.36 kcal/mol
26,GGGTTCACGTGCAATG,0.27 kcal/mol

row,Sequence,relative binding free energy
1,GAAGTCACGTGGAGGG,0.07 kcal/mol
2,TGGTTCACGTGGCCGG,0.19 kcal/mol
3,TGATGCACGTGAGCGA,0.2 kcal/mol
4,TTCGGCACGTGCAGGT,-0.01 kcal/mol
5,GGTGGCACGTGATGTA,0.11 kcal/mol
6,AAGATCACGTGATGGG,0.22 kcal/mol
7,GTGTTCACGTGGCTAA,0.17 kcal/mol
8,AATTGCACGTGTATGT,-0.03 kcal/mol
9,GTAGTCACGTGGAATT,0.2 kcal/mol
10,GGTTGCACGTGCCGTT,0.03 kcal/mol
11,CATGTCACGTGAAATG,0.31 kcal/mol
12,TAGATCACGTGTGTTA,0.16 kcal/mol
13,TGCTGCACGTGGTCGT,-0.11 kcal/mol
14,ATGCGCACGTGGGTGA,-0.43 kcal/mol
15,GGTTGCACGTGGATAG,0.07 kcal/mol
16,GTGGCCACGTGTTGTT,0 kcal/mol
17,TTATTCACGTGGAATA,0.36 kcal/mol
18,AATGACACGTGTTTAG,0.03 kcal/mol
19,ATGGTCACGTGCGTGC,-0.01 kcal/mol
20,GTTTCCACGTGAGGGA,0.26 kcal/mol
21,GGGTGCACGTGGGAAG,0 kcal/mol
22,GTTATCACGTGAAGCT,0.45 kcal/mol
23,GCCGTCACGTGGTGGT,0.08 kcal/mol
24,TAATACACGTGGGATT,0.11 kcal/mol
25,CGGGGCACGTGCTGGG,-0.22 kcal/mol
26,TAAAACACGTGGTGGA,-0.06 kcal/mol

row,Sequence,relative binding free energy
1,TTGTGCACGTGTTGTG,0.01 kcal/mol
2,TTTTGCACGTGTTAGA,0.12 kcal/mol
3,CGTTTCACGTGTTAGT,0.26 kcal/mol
4,TTCTACACGTGGAATG,0.26 kcal/mol
5,TGTGGCACGTGAAGAT,0.1 kcal/mol
6,TTGTTCACGTGGGACG,0.21 kcal/mol
7,GTTTTCACGTGGTGTA,0.26 kcal/mol
8,TGGGGCACGTGTATGC,-0.1 kcal/mol
9,GTCGTCACGTGCGGGA,0.23 kcal/mol
10,GGAGTCACGTGGTGGT,0.13 kcal/mol
11,TATTTCACGTGGTATC,0.13 kcal/mol
12,GGCGTCACGTGAATGT,0.34 kcal/mol
13,GAGTGCACGTGGTTAC,0.05 kcal/mol
14,TTCGGCACGTGGTAGG,-0.2 kcal/mol
15,AGGGGCACGTGGGTTG,-0.2 kcal/mol
16,AGTGACACGTGTGTGA,-0.05 kcal/mol
17,AGTTTCACGTGTTGTG,0.15 kcal/mol
18,GGCTTCACGTGAGGAG,0.34 kcal/mol
19,GTGGGCACGTGGAGAT,-0.03 kcal/mol
20,GGTTGCACGTGTGGAT,0.23 kcal/mol
21,GTGCACACGTGTGTGC,0.1 kcal/mol
22,AATGACACGTGAGGGC,0.29 kcal/mol
